Test results published in patent US20240358826A1 (ORIONIS BIOSCIENCES, published 2024).

T1: IL-1R (IL-1 Receptor) (UniProt P14778 18-569, limits assumed)
T1 sequence (looked up): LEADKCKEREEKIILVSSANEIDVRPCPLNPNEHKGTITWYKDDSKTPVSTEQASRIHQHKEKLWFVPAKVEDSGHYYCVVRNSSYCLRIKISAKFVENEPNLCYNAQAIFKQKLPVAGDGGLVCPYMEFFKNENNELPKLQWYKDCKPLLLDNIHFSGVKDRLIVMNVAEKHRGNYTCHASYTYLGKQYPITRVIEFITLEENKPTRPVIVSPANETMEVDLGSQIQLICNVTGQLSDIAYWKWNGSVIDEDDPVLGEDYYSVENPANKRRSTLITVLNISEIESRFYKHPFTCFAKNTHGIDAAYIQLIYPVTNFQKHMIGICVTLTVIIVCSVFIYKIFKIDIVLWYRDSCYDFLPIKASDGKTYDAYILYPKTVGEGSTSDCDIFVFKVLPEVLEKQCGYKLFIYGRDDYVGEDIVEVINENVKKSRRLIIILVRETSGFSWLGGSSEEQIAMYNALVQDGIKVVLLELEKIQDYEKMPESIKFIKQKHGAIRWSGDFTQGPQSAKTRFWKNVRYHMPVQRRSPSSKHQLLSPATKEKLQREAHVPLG


Biological target: T1, IL-1R (IL-1 Receptor)
Experiment: cell-based or functional assay

Binder | NF-KB signal, -CD8 cells, 1 ng/ml | NF-KB signal, -CD8 cells, 10 ng/ml | NF-KB signal, -CD8 cells, 100 ng/ml | NF-KB signal, -CD8 cells, 1000 ng/ml
CD8 VHH_5GGS_Fc_hole + Fc-knob_20GGS_IL1α delta 1-6_I18G (Fc fusion) chain 1: DVQLQESGGGLVQPGGSLRLSCAASGSIFSINVMGWYRQTPGKERELVAKITNFGITSYADSAQGRFTISRGNAKNTVYLQMNSLKPEDTAVYYCNLDTTGWGPPPYQYWGQGTQVTVSSGGSGGSGGSGGSGGSDKTHTCPPCPAPEAAGGPSVFLFPPKPKDTLMISRTPEVTCVVVDVSHEDPEVKFNWYVDGVEVHNAKTKPREEQYNSTYRVVSVLTVLHQDWLNGKEYKCQVSNKALPAPIEKTISKAKGQPREPQVCTLPPSRDELTKNQVSLSCAVKGFYPSDIAVEWESNGQPENNYKTTPPVLDSDGSFFLVSKLTVDKSRWQQGNVFSCSVMHEALHNHYTQKSLSLSPGK chain 2: [letters of human IgG1 Fc with changes not shown]GGSGGSGGSGGSGGSGGSGGSGGSGGSGGSGGSGGSGGSGGSGGSGGSGGSGGSGGSGGSLSNVKYNFMRIGKYEFILNDALNQSIIRANDQYLTAAALHNLDEAVKFDMGAYKSSKDDAKITVILRISKTQLYVTAQDEDQPVLLKEMPEIPKTITGSETNLLFFWETHGTKNYFTSVAHPNLFIATKQDYWVCLAGGPPSITDFQILENQA | 0.01 rel. to 100 ng/ml IL1α | 0.02 rel. to 100 ng/ml IL1α | 0.01 rel. to 100 ng/ml IL1α | 0.05 rel. to 100 ng/ml IL1α
CD8 VHH_5GGS_Fc_hole + Fc-knob_20GGS_IL1α delta 1-6_N25G (Fc fusion) chain 1: DVQLQESGGGLVQPGGSLRLSCAASGSIFSINVMGWYRQTPGKERELVAKITNFGITSYADSAQGRFTISRGNAKNTVYLQMNSLKPEDTAVYYCNLDTTGWGPPPYQYWGQGTQVTVSSGGSGGSGGSGGSGGSDKTHTCPPCPAPEAAGGPSVFLFPPKPKDTLMISRTPEVTCVVVDVSHEDPEVKFNWYVDGVEVHNAKTKPREEQYNSTYRVVSVLTVLHQDWLNGKEYKCQVSNKALPAPIEKTISKAKGQPREPQVCTLPPSRDELTKNQVSLSCAVKGFYPSDIAVEWESNGQPENNYKTTPPVLDSDGSFFLVSKLTVDKSRWQQGNVFSCSVMHEALHNHYTQKSLSLSPGK chain 2: [letters of human IgG1 Fc with changes not shown]GGSGGSGGSGGSGGSGGSGGSGGSGGSGGSGGSGGSGGSGGSGGSGGSGGSGGSGGSGGSLSNVKYNFMRIIKYEFILGDALNQSIIRANDQYLTAAALHNLDEAVKFDMGAYKSSKDDAKITVILRISKTQLYVTAQDEDQPVLLKEMPEIPKTITGSETNLLFFWETHGTKNYFTSVAHPNLFIATKQDYWVCLAGGPPSITDFQILENQA | – | 0.02 rel. to 100 ng/ml IL1α | 0.15 rel. to 100 ng/ml IL1α | 0.83 rel. to 100 ng/ml IL1α
CD8 VHH_5GGS_Fc_hole + Fc-knob_20GGS_IL1α delta 1-6_I33G (Fc fusion) chain 1: DVQLQESGGGLVQPGGSLRLSCAASGSIFSINVMGWYRQTPGKERELVAKITNFGITSYADSAQGRFTISRGNAKNTVYLQMNSLKPEDTAVYYCNLDTTGWGPPPYQYWGQGTQVTVSSGGSGGSGGSGGSGGSDKTHTCPPCPAPEAAGGPSVFLFPPKPKDTLMISRTPEVTCVVVDVSHEDPEVKFNWYVDGVEVHNAKTKPREEQYNSTYRVVSVLTVLHQDWLNGKEYKCQVSNKALPAPIEKTISKAKGQPREPQVCTLPPSRDELTKNQVSLSCAVKGFYPSDIAVEWESNGQPENNYKTTPPVLDSDGSFFLVSKLTVDKSRWQQGNVFSCSVMHEALHNHYTQKSLSLSPGK chain 2: [letters of human IgG1 Fc with changes not shown]GGSGGSGGSGGSGGSGGSGGSGGSGGSGGSGGSGGSGGSGGSGGSGGSGGSGGSGGSGGSLSNVKYNFMRIIKYEFILNDALNQSIGRANDQYLTAAALHNLDEAVKFDMGAYKSSKDDAKITVILRISKTQLYVTAQDEDQPVLLKEMPEIPKTITGSETNLLFFWETHGTKNYFTSVAHPNLFIATKQDYWVCLAGGPPSITDFQILENQA | 0.02 rel. to 100 ng/ml IL1α | 0.01 rel. to 100 ng/ml IL1α | 0.04 rel. to 100 ng/ml IL1α | 0.58 rel. to 100 ng/ml IL1α
CD8 VHH_5GGS_Fc_hole + Fc-knob_20GGS_IL1α delta 1-6_N25A (Fc fusion) chain 1: DVQLQESGGGLVQPGGSLRLSCAASGSIFSINVMGWYRQTPGKERELVAKITNFGITSYADSAQGRFTISRGNAKNTVYLQMNSLKPEDTAVYYCNLDTTGWGPPPYQYWGQGTQVTVSSGGSGGSGGSGGSGGSDKTHTCPPCPAPEAAGGPSVFLFPPKPKDTLMISRTPEVTCVVVDVSHEDPEVKFNWYVDGVEVHNAKTKPREEQYNSTYRVVSVLTVLHQDWLNGKEYKCQVSNKALPAPIEKTISKAKGQPREPQVCTLPPSRDELTKNQVSLSCAVKGFYPSDIAVEWESNGQPENNYKTTPPVLDSDGSFFLVSKLTVDKSRWQQGNVFSCSVMHEALHNHYTQKSLSLSPGK chain 2: [letters of human IgG1 Fc with changes not shown]GGSGGSGGSGGSGGSGGSGGSGGSGGSGGSGGSGGSGGSGGSGGSGGSGGSGGSGGSGGSLSNVKYNFMRIIKYEFILADALNQSIIRANDQYLTAAALHNLDEAVKFDMGAYKSSKDDAKITVILRISKTQLYVTAQDEDQPVLLKEMPEIPKTITGSETNLLFFWETHGTKNYFTSVAHPNLFIATKQDYWVCLAGGPPSITDFQILENQA | 0.02 rel. to 100 ng/ml IL1α | 0.01 rel. to 100 ng/ml IL1α | 0.14 rel. to 100 ng/ml IL1α | 0.75 rel. to 100 ng/ml IL1α
CD8 VHH_5GGS_Fc_hole + Fc-knob_20GGS_IL1α delta 1-6_L28G (Fc fusion) chain 1: DVQLQESGGGLVQPGGSLRLSCAASGSIFSINVMGWYRQTPGKERELVAKITNFGITSYADSAQGRFTISRGNAKNTVYLQMNSLKPEDTAVYYCNLDTTGWGPPPYQYWGQGTQVTVSSGGSGGSGGSGGSGGSDKTHTCPPCPAPEAAGGPSVFLFPPKPKDTLMISRTPEVTCVVVDVSHEDPEVKFNWYVDGVEVHNAKTKPREEQYNSTYRVVSVLTVLHQDWLNGKEYKCQVSNKALPAPIEKTISKAKGQPREPQVCTLPPSRDELTKNQVSLSCAVKGFYPSDIAVEWESNGQPENNYKTTPPVLDSDGSFFLVSKLTVDKSRWQQGNVFSCSVMHEALHNHYTQKSLSLSPGK chain 2: [letters of human IgG1 Fc with changes not shown]GGSGGSGGSGGSGGSGGSGGSGGSGGSGGSGGSGGSGGSGGSGGSGGSGGSGGSGGSGGSLSNVKYNFMRIIKYEFILNDAGNQSIIRANDQYLTAAALHNLDEAVKFDMGAYKSSKDDAKITVILRISKTQLYVTAQDEDQPVLLKEMPEIPKTITGSETNLLFFWETHGTKNYFTSVAHPNLFIATKQDYWVCLAGGPPSITDFQILENQA | 0.01 rel. to 100 ng/ml IL1α | 0.03 rel. to 100 ng/ml IL1α | 0.2 rel. to 100 ng/ml IL1α | 1.02 rel. to 100 ng/ml IL1α
CD8 VHH_5GGS_Fc_hole + Fc-knob_20GGS_IL1α delta 1-6_L28A (Fc fusion) chain 1: DVQLQESGGGLVQPGGSLRLSCAASGSIFSINVMGWYRQTPGKERELVAKITNFGITSYADSAQGRFTISRGNAKNTVYLQMNSLKPEDTAVYYCNLDTTGWGPPPYQYWGQGTQVTVSSGGSGGSGGSGGSGGSDKTHTCPPCPAPEAAGGPSVFLFPPKPKDTLMISRTPEVTCVVVDVSHEDPEVKFNWYVDGVEVHNAKTKPREEQYNSTYRVVSVLTVLHQDWLNGKEYKCQVSNKALPAPIEKTISKAKGQPREPQVCTLPPSRDELTKNQVSLSCAVKGFYPSDIAVEWESNGQPENNYKTTPPVLDSDGSFFLVSKLTVDKSRWQQGNVFSCSVMHEALHNHYTQKSLSLSPGK chain 2: [letters of human IgG1 Fc with changes not shown]GGSGGSGGSGGSGGSGGSGGSGGSGGSGGSGGSGGSGGSGGSGGSGGSGGSGGSGGSGGSLSNVKYNFMRIIKYEFILNDAANQSIIRANDQYLTAAALHNLDEAVKFDMGAYKSSKDDAKITVILRISKTQLYVTAQDEDQPVLLKEMPEIPKTITGSETNLLFFWETHGTKNYFTSVAHPNLFIATKQDYWVCLAGGPPSITDFQILENQA | 0.01 rel. to 100 ng/ml IL1α | 0.07 rel. to 100 ng/ml IL1α | 0.58 rel. to 100 ng/ml IL1α | 1.11 rel. to 100 ng/ml IL1α
CD8 VHH_5GGS_Fc_hole + Fc-knob_20GGS_IL1α delta 1-6_I33A (Fc fusion) chain 1: DVQLQESGGGLVQPGGSLRLSCAASGSIFSINVMGWYRQTPGKERELVAKITNFGITSYADSAQGRFTISRGNAKNTVYLQMNSLKPEDTAVYYCNLDTTGWGPPPYQYWGQGTQVTVSSGGSGGSGGSGGSGGSDKTHTCPPCPAPEAAGGPSVFLFPPKPKDTLMISRTPEVTCVVVDVSHEDPEVKFNWYVDGVEVHNAKTKPREEQYNSTYRVVSVLTVLHQDWLNGKEYKCQVSNKALPAPIEKTISKAKGQPREPQVCTLPPSRDELTKNQVSLSCAVKGFYPSDIAVEWESNGQPENNYKTTPPVLDSDGSFFLVSKLTVDKSRWQQGNVFSCSVMHEALHNHYTQKSLSLSPGK chain 2: [letters of human IgG1 Fc with changes not shown]GGSGGSGGSGGSGGSGGSGGSGGSGGSGGSGGSGGSGGSGGSGGSGGSGGSGGSGGSGGSLSNVKYNFMRIIKYEFILNDALNQSIARANDQYLTAAALHNLDEAVKFDMGAYKSSKDDAKITVILRISKTQLYVTAQDEDQPVLLKEMPEIPKTITGSETNLLFFWETHGTKNYFTSVAHPNLFIATKQDYWVCLAGGPPSITDFQILENQA | 0.02 rel. to 100 ng/ml IL1α | 0.01 rel. to 100 ng/ml IL1α | 0.07 rel. to 100 ng/ml IL1α | 0.64 rel. to 100 ng/ml IL1α
